# Test results reported in PubChem BioAssay AID2675 (National Center for Advancing Translational Sciences (NCATS), 2010).
# Where “and” joins values, the source holds several entries; their conditions need not be identical. Identical values can stand only once. Hit rate of the full screen: of about 280,000 compounds, about 100 (0.036%) were called active. The shares of active, inactive and inconclusive entries below differ from those in the screen. Calls come from the whole dose curve; as a rule, active = well fitted inhibition curve with a large enough effect in the signal ratio, with a control signal flat (not every such curve was filed as active); inconclusive = small, poorly fitted or top-dose-only effect, or effect the other way, or a change in a side signal; inactive = no such curve, though single readings can be large or run the other way; the % refers to the signal ratio. Potencies of inconclusive entries are doubtful fits and often do not repeat. A note “side channel” means that the fit belongs to a control or component signal, not to the main read-out.
# Biological target: Muscleblind-like protein 1 (Homo sapiens) (UniProt Q9NR56)
# Chain of UniProt Q9NR56 (Q9NR56 whole entry, looked up): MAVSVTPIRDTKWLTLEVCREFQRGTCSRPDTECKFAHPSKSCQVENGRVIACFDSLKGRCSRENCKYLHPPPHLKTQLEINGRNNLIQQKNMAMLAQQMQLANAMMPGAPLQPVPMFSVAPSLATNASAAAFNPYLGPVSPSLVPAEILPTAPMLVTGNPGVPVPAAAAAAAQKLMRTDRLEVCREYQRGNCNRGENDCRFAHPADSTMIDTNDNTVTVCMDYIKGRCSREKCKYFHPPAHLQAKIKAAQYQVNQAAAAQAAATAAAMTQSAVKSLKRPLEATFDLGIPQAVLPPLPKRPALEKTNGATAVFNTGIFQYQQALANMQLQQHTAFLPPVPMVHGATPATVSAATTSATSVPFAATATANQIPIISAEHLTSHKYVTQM
# Assay: qHTS Assay for Inhibitors of MBNL1-poly(CUG) RNA binding
# Conditions: TR-FRET MBNL1-His/biotin-(CUG)12 binding, 665/545 ratio; series mostly up to 57.5 µM
# Procedure, shortened: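 Ratiometric TR-FRET (665 over 545 nm, excitation 340 nm) tracks disruption of MBNL1-His/biotin-(CUG)12 complex after 60 min at room temperature, with compounds at 92 nM to 58 uM final.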
# Potency is the fitted concentration of half-maximal effect; tags give direction and shape of the fitted curve or compound fluorescence and quenching.
row,SMILES,Potency
1,Cc1cc(=O)n(-c2ccccc2)n1-c1ccccc1,"inconclusive: 1 µM [quencher, side channel, partial curve, poor fit]"
2,CC(=O)N1CCC(N2CCCC(C(=O)c3cccc(Cl)c3)C2)CC1 (configuration not stated),inactive
3,CC(C)CCn1c(N)c(C(=O)OCC2CCCO2)c2nc3ccccc3nc21 (configuration not stated),"inconclusive: 31.6 µM [quencher, side channel, single point]"
4,CCN(CC)C(=O)c1ccc2c(c1)C1C=CCC1C(C(=O)O)N2 (configuration not stated),"inconclusive: 14.1 µM [quencher, side channel, partial curve]"
5,CC(C)NC(=O)c1ccc(N2CC3CC(C2)c2cccc(=O)n2C3)c([N+](=O)[O-])c1 (configuration not stated),"inconclusive: 12.6 µM [quencher, side channel, partial curve]"
6,CCOc1ccc(-n2c(O)c(N=Nc3ccc([N+](=O)[O-])cc3)c(=O)[nH]c2=O)cc1,"inconclusive: 3.98 µM [quencher, side channel, full curve]"
7,O=C(COc1ccc(Br)cc1)N1CCN(Cc2c[nH]c3ccccc23)CC1,inactive
8,O=P(NS(=O)(=O)c1ccccc1)(Oc1ccccc1)Oc1ccccc1,inactive
9,CCOC(=O)C1(CCc2ccccc2)CCN(Cc2cccc3c2OCO3)CC1,inactive
10,CC(C)(C)c1nc(N2CCN(C(=O)c3ccco3)CC2)c2nnn(Cc3ccccc3Cl)c2n1,inactive
11,O=c1[nH]c(O)c(N=Nc2ccc3c(c2)OCCO3)c(=O)[nH]1,"inconclusive: 2.82 µM [quencher, side channel, full curve]"
12,O=C1NC(=O)N(c2ccc3c(c2)OCO3)C(=O)/C1=C/c1ccc(N2CCCCC2)o1,"inconclusive: 7.94 µM [quencher, side channel, full curve]"
13,CCN(CC)P(=O)(Nc1ccc([N+](=O)[O-])cc1)c1c(C)nn(CCC#N)c1NC(=O)c1ccc(Cl)cc1Cl (configuration not stated),"inconclusive: 17.8 µM [quencher, side channel, partial curve]"
14,C/C=C(\C)C(=O)N[C@@H](c1ccccc1)[C@@H](O)C(=O)O[C@H]1C[C@@]2(O)[C@@H](OC(=O)c3ccccc3)C3[C@](C)(C(=O)[C@H](OC(C)=O)C(=C1C)C2(C)C)[C@H](O)C[C@H]1OC[C@@]31OC(C)=O (some centres not stated),inactive
15,O=[N+]([O-])c1ccc(N2CCNCC2)cc1N1CCCCC1,"inconclusive: 3.98 µM [quencher, side channel, full curve, poor fit]"
16,Cc1nc2ccccc2c2c1C(=O)N(c1cccc(C(=O)O)c1)C2=O,"inconclusive: 3.55 µM [quencher, side channel, full curve]"
17,Cc1nn(CC(=O)N2CCC3(CC2)OCCO3)c(=O)c2cc3ccccc3n12,"inconclusive: 12.6 µM [quencher, side channel, partial curve]"
18,Cc1ccc(-c2ccc(=O)n(CC(=O)N3CCC4(CC3)OCCO4)n2)cc1,"inconclusive: 39.8 µM [activator, single point]"
19,O=[N+]([O-])c1cc(Cl)c(O)c(-[n+]2c(-c3ccccc3)cc(-c3ccccc3)cc2-c2ccccc2)c1,"inconclusive: 17.8 µM [quencher, side channel, partial curve]"

row,SMILES,Potency
1,COc1ccc(N/N=C/c2c(O)n(-c3ccc(C)c(C)c3)c(=O)[nH]c2=O)cc1,"inconclusive: 31.6 µM [quencher, single point]"
2,COc1ccc(C2CC(c3c(O)n(CCc4ccccc4)c(=O)[nH]c3=O)=NN2)cc1OC (configuration not stated),inactive
3,CN(C)C(CNC(=O)Cc1ccc(Br)cc1)c1ccccc1 (configuration not stated),inactive
4,CNCCC(Oc1ccc(C(F)(F)F)cc1)c1ccccc1 (configuration not stated),"inconclusive: 3.98 µM [quencher, side channel, single point]"
5,Cc1cc(OCC(=O)NCc2ccncc2)c2c3c(c(=O)oc2c1)CCCC3,inactive
6,CCc1ccc(N2C(=O)NC(=O)/C(=C/c3cccn3CCOc3ccc(C(C)CC)cc3)C2=O)cc1 (configuration not stated),inactive
7,CCOC(=O)c1c(N)n(CCN2CCCCC2)c2nc3ccccc3nc12,inactive
8,COC(=O)CCc1nc2c(C#N)c(-c3ccc(Cl)cc3)ccn2n1,"inconclusive: 15.8 µM [quencher, partial curve]"
9,O=c1[nH]c(=S)[nH]c(O)c1N=Nc1ccc(S(=O)(=O)N2CCOCC2)cc1,"inconclusive: 3.98 µM [quencher, side channel, full curve]"
10,O=C(O)c1cc2ccccc2oc1=O,"inconclusive: 3.16 µM [quencher, side channel, partial curve]"
11,CCN(CC)C(=O)c1ccc(NC(=O)c2cccc(C(F)(F)F)c2)cc1,inactive
12,COc1cccc(OCCNC(=O)c2cc([N+](=O)[O-])cc([N+](=O)[O-])c2)c1,"inconclusive: 10 µM [quencher, side channel, partial curve]"
13,COc1ccc(-n2c(C)nc3ccccc3c2=O)c([N+](=O)[O-])c1,"inconclusive: 14.1 µM [quencher, partial curve]"
14,Cc1ccc(CSCCNS(=O)(=O)c2ccc([N+](=O)[O-])cc2)cc1,"inconclusive: 22.4 µM [quencher, side channel, single point]"
15,CCN1C(=O)NC(=O)/C(=C/c2cc(C)n(-c3sc(C)c(C)c3C#N)c2C)C1=O,"inconclusive: 39.8 µM [fluorescent, side channel, partial curve, poor fit]"
16,Cn1c(N)c(Sc2ccccc2[N+](=O)[O-])c(=O)n(C)c1=O,"inconclusive: 14.1 µM [quencher, side channel, partial curve]"
17,Cc1cc2oc(=O)cc(-c3cc4ccccc4o3)c2cc1OC(=O)N(C)C,"inconclusive: 2.82 µM [quencher, side channel, single point]"
18,Cc1ccc(/C=C2\C(=O)NC(=O)N(CCc3ccc(F)cc3)C2=O)o1,"inconclusive: 0.126 µM [fluorescent, side channel, partial curve, poor fit]"
19,O=c1[nH]c(=O)n(-c2ccccc2)c(O)c1/C=C/C=Nc1ccccc1,"inconclusive: 22.4 µM [quencher, single point]"

row,SMILES,Potency
1,Fc1ccc(C(OCCN2CCCC2)c2ccc(F)cc2)cc1,inactive
2,Cc1nonc1OCCNCCNc1ccc([N+](=O)[O-])c2cccnc12,"inconclusive: 15.8 µM [quencher, side channel, partial curve]"
3,Brc1c(NC2=NCCN2)ccc2nccnc12,"inconclusive: 11.2 µM [quencher, side channel, partial curve] and inconclusive: 12.6 µM [quencher, side channel, partial curve]"
4,COc1ccccc1C1=NOC(COC(=O)c2ccc([N+](=O)[O-])cc2)C1 (configuration not stated),"inconclusive: 14.1 µM [quencher, side channel, partial curve]"
5,COC(=O)C1CN(C#N)N(c2ccc(Cl)cc2)C12c1ccccc1-c1ccccc12 (configuration not stated),"inconclusive: 31.6 µM [quencher, side channel, single point]"
6,OCC[n+]1c2ccccc2nc2ccc(N3CCOCC3)cc21,"inconclusive: 3.98 µM [quencher, side channel, partial curve]"
7,O=C(NC1CN2CCC1CC2)c1ccc(-c2ccc([N+](=O)[O-])cc2)o1 (configuration not stated),"inconclusive: 44.7 µM [quencher, partial curve, poor fit]"
8,COCCCn1c(N)c(C(=O)OCCOC)c2nc3ccccc3nc21,"inconclusive: 28.2 µM [quencher, side channel, single point]"
9,O=C(C/C=N\OCc1ccc([N+](=O)[O-])cc1)Nc1ccc(F)cc1F,"inconclusive: 28.2 µM [quencher, side channel, single point]"
10,CCOP(=O)(Cc1cc(C(=O)CC)c(C)o1)OCC,inactive
11,Nc1c([N+](=O)[O-])cc(F)c(N2CCNCC2)c1Br,"inconclusive: 1.26 µM [quencher, partial curve]"
12,CC(=O)Nc1ccc([As](=O)(O)c2ccc([N+](=O)[O-])cc2)cc1,"inconclusive: 10 µM [quencher, side channel, partial curve]"
13,CCOC(=O)C(NC(C)=O)C(OC(C)=O)c1cccc(N(CCCl)CCCl)c1 (configuration not stated),"inconclusive: 7.08 µM [quencher, side channel, single point]"
14,CN(C)[C@@H]1C(=O)C(C(N)=O)=C(O)[C@@]2(O)C(=O)C3=C(O)c4c(O)cccc4[C@@](C)(O)[C@H]3[C@H](O)[C@@H]12,"inconclusive: 39.8 µM [quencher, side channel, partial curve, poor fit]"
15,CN(c1ccccc1)c1ccc([N+](=O)[O-])c2nonc12,"inconclusive: 3.98 µM [quencher, side channel, partial curve]"
16,CC(=O)N1CCN(c2ccc(N=Cc3c(O)n(-c4ccc(Cl)cc4)c(=O)[nH]c3=O)cc2)CC1,"inconclusive: 44.7 µM [quencher, side channel, single point]"
17,CN1CCN(c2ccc(N)cc2)CC1,"inconclusive: 14.1 µM [quencher, side channel, partial curve]"
18,CCOP(=O)(OCC)C(NC(=O)c1ccc(C)cc1)C(Cl)(Cl)Cl (configuration not stated),"inconclusive: 25.1 µM [fluorescent, side channel, partial curve, poor fit]"
19,CC(=NCc1ccc2c(c1)OCO2)c1c(O)n(C)c(=O)n(C)c1=O,inactive
